Hit rate of the full screen: of about 150,000 compounds, about 540 (0.36%) showed an effect of 50% or more. The list shows a part of the results.

In the experiment the test system is Plasmodium falciparum. The experiment is described as follows: Primary screen in NF54 nanoGlo assay, in single point, at 2uM, 72h; a lower Z score goes with more inhibition. The format is functional, Erythrocyte. Conditions: timepoint 72 hour.
With `Nc1cc(Cl)ccc1Br`, the “% Inhibition” value is listed as -2% and the Z score is listed as 0.24.

Regarding `O=C(COc1ccc(F)cc1)N[C@H]1CC(=O)N(c2ccc3c(c2)OCCO3)C1`, the “% Inhibition” value is -12% and the Z score is 2.36.

For `CC(=O)Cn1nc(C)c(-c2ccc(C(=O)O)cc2)c1C`, the “% Inhibition” value was -2% and the Z score is recorded as 0.2.

On to `O=C(c1coc(CN2CCN(C[C@H](O)CN3CCOCC3)CC2)n1)N1CCN(c2ccccc2)CC1`, for which the “% Inhibition” value is on record as -4% and the Z score was 0.63.

As to `O=C(C1CCC1)N1CCOc2ccc(CN3CCCC3)cc2C1`, the “% Inhibition” value is -15% and the Z score is on record as 1.58.

For the compound `COc1ccc(-c2cn3c(n2)sc2ccccc23)cc1OC`, the “% Inhibition” value is recorded as 14% and the Z score was -1.27.

Take `Nc1[nH]n(-c2ccccc2)c(=O)c1C1=NCCCCC1`: the “% Inhibition” value is reported as -2% and the Z score was determined as 0.27.

In the case of `NC(=O)NC(=O)[C@H](Nc1ccc(Oc2ccc(Br)cc2)cc1)c1ccccc1`, the “% Inhibition” value is given as -4% and the Z score amounted to 0.44.

Take `CCN(CC)CCN(CC(=O)N1CCCN(c2ccc(-c3ccc(OC)cc3)nn2)CC1)C(=O)c1ccco1`: the “% Inhibition” value is given as -3% and the Z score worked out at 0.57.

In the case of `CC(C)(C)c1cc(CN2CCC(Oc3ccccc3F)(C(=O)O)CC2)n[nH]1`, the “% Inhibition” value worked out at 2% and the Z score was -0.28.

With `CC(=O)Nc1ccc(-n2c(CCC(=O)N3CCc4ccccc4C3)ccc2-c2ccc(F)cc2)cc1`, the “% Inhibition” value is -19% and the Z score is on record as 2.73.

On to `CC(C)N(C)C(=O)c1ccc(Cl)c(N)c1`, for which the “% Inhibition” value is reported as -11% and the Z score is listed as 2.04.

Consider `Cc1nn([C@@H]2CCCCO2)c(C)c1Br`, for which the “% Inhibition” value is -10% and the Z score is reported as 1.3.

Regarding `CCc1nc(C)sc1Cn1cc(-c2cc(OC)c3c(c2)OCO3)nn1`, the “% Inhibition” value amounted to 1% and the Z score is given as -0.11.

Regarding `CC(=O)c1cnc(NC[C@H](C)Cn2nc(C)cc2C(F)(F)F)nc1C`, the “% Inhibition” value is -9% and the Z score is reported as 1.19.

In the case of `CCn1c(Cc2cccs2)nc2ccccc21`, the “% Inhibition” value is -6% and the Z score is on record as 0.85.

On to `CN(CC(=O)N1CCN(c2ccccn2)CC1)C(=O)c1c[nH]c2ccccc12`, for which the “% Inhibition” value is on record as -8% and the Z score was found to be 1.19.

With `COc1cc(C)c(S(=O)(=O)N2CCc3cc4cc(C)ccc4nc32)cc1C`, the “% Inhibition” value is on record as 26% and the Z score is recorded as -3.26.

Take `CN1CCO[C@H](C(=O)Nc2nc(CC(C)(C)C)cs2)C1`: the “% Inhibition” value is given as -14% and the Z score is 1.62.

For `O=C(c1ccc(C2=CCCC2)cc1)N1CCC(c2nnc3n2CCCC3)CC1`, the “% Inhibition” value is recorded as -11% and the Z score is given as 1.75.

On to `COc1nc(C)c(Br)c(C)c1C(=O)O`, for which the “% Inhibition” value is -2% and the Z score was 0.38.

For `CN(C)c1ccccc1NC(=O)[C@@H]1CCCCC(=O)N1`, the “% Inhibition” value is -2% and the Z score is on record as 0.43.

Turning to `CC(C)(NCC(=O)NCC(=O)O)c1ccc(Cl)c(Cl)c1`, the “% Inhibition” value is listed as 32% and the Z score was -3.66.

Regarding `Cc1cccn(CC(=O)N2CCC(=O)[C@@H](C)C2)c1=O`, the “% Inhibition” value is on record as 2% and the Z score is -0.36.

Source of the values: ChEMBL document CHEMBL4888484, “Replenishing the malaria drug discovery pipeline: Screening and hit evaluation of the MMV Hit Generation Library 1 (HGL1) against asexual blood stage Plasmodium falciparum ,using a nano luciferase reporter read-out” (2022).
